Measurements published in paper PMC12136788.
Some of the results follow.

B1: chr15:75505753:75505856:-|CDS|ENSG00000169410|unk|FALSE|unique (ssRNA)
RNA: GGGAGUUCUACAGUCCGACGAUCGGUGAACGGCCACCCAGAUCCCUUCGAUGAGAUCAUCCUGUUCUCCCUCCCUCCUGCCUUAGACUGGGACUCAGUACAUGUUCCAGGUCCCCAUGCUAUGACCAUCCAAGAGUUGGUGGACAACAGAGGAUUGAGCAUCA
B2: chr3:73066602:73066703:+|3pUTR|ENSG00000163605|unk|total|mutant (ssRNA)
RNA: GGGAGUUCUACAGUCCGACGAUCACUAUUUUGCCGAAUGAAUGUUUAUGAAGCUGAUAUGAGACCAUCUCAGAAGAACCAAGCCGGUUCCUUGACCUUUUGCUUGCUUUUCUGAACAUUGUGAAUAUUACACAUGUCUUUCUACAACAGAGGAUUGAGCAUCA
B3: chr10:103289619:103289731:+|3pUTR|ENSG00000148798|unk|total|mutant (ssRNA)
RNA: GGGAGUUCUACAGUCCGACGAUCAUGAGUGGAAAAAGCCAAGGUGUCAUUUAUGUGUCAGUUCAUUUGUGGUGAUACCGAAUCCGCUUUUUCAUCCCCUUACCCUCCGAAUCCACGUAUUCCCCUUCCCACCCGCCCCGGUCACAACAGAGGAUUGAGCAUCA
B4: ENSG00000106305:stop:overlap|stop_codon|ENSG00000106305|stop_codon|NA|stop_codon (ssRNA)
RNA: GGGAGUUCUACAGUCCGACGAUCACGUGCACGGCAGGAGCUACGGCCCAGCGCCGGGCGCUGGCCACGUGCAGCCUCUCCAGUAGCUGGGAUUACAGGUGCCCCCCACCAAGCCCAGCUAAUUUUUGUGUUUCAGUAGAAAUGCAACAGAGGAUUGAGCAUCA
B5: chr8:144876950:144881514:-|three_prime_utr|ENSG00000196150|control|control|control (ssRNA)
RNA: GGGAGUUCUACAGUCCGACGAUCGAAACUGCAUGUGGAACCACAAGCAGCCUUCAGCCCAAGAGAAGUCUCUGUUAACUCUAUAGGAAGCUUUUCUUUGGCGAUUCAGUGUCACAAAAUAACUCCAGAAAGAAGCACUUAGCGCAACAGAGGAUUGAGCAUCA
B6: ENSG00000105438:stop:overlap|stop_codon|ENSG00000105438|stop_codon|NA|stop_codon (ssRNA)
RNA: GGGAGUUCUACAGUCCGACGAUCAUUUCUUCUACCUCUAUAUCACCAAAGUCCUAAAGGGGAAGAAGUUGAGUUUGCCGGCAUAGCCCCGGUCCUCUCCAUCUCUCUCCUCGGCAGCAGCGGGAGGCAGAGGAAGGCGGCAGACAACAGAGGAUUGAGCAUCA
B7: chr12:55956948:55957671:-|CDS|ENSG00000185664|control|control|control (ssRNA)
RNA: GGGAGUUCUACAGUCCGACGAUCGUGCUUUCUGGAACCACAGCUGCACAGGUAACAACUACAGAGUGGGUGGAGACCACAGCUAGAGAGCUACCUAUCCCUGAGCCUGAAGGUCCAGAUGCCAGCUCAAUCAUGUCUACGGAACAACAGAGGAUUGAGCAUCA
B8: chr1:162599429:162599460:+|3pUTR|ENSG00000117143|msi1_unk|total|mutant (ssRNA)
RNA: GGGAGUUCUACAGUCCGACGAUCGGUAUUUGAACCAGAUACCAAGUUUUGUUUGCCACGACCGGAACCGCUUUUAUUUUUGACCGACCAACUGUGAACCUACAAGACGUCUUGGACAACUGAAGUUUAAAUAUCCACAGGGUUCAACAGAGGAUUGAGCAUCA
B9: ENSG00000165916:stop:overlap|stop_codon|ENSG00000165916|stop_codon|NA|stop_codon (ssRNA)
RNA: GGGAGUUCUACAGUCCGACGAUCACAUGGAAGGCAUCCUGGAGGUGCAGGCCAAGAAGAAAGCCAACCUACAAUACUACGCCUAGGGCACACAGGCCAGCCCCAGUCUCACGGCUGAAGUGCGCAAUAAAAGAUGGUUUAGGGCAACAGAGGAUUGAGCAUCA
B10: ENSG00000070961:be:win_2851|CDS|ENSG00000070961|bound_else_gene|NA|bound_elsewhere_windowed (ssRNA)
RNA: GGGAGUUCUACAGUCCGACGAUCGAAAAGUUUUUUGACAUUGAUAGUGGAAGAAAUGCUCCUUUGCAUGCUCCUCCUUCAGAACAUUAUACUAUUGUUUUUAAUACCUUUGUGCUGAUGCAACUUUUCAACGAAAUAAAUGCCCAACAGAGGAUUGAGCAUCA
B11: chr13:77097425:77097526:-|CDS|ENSG00000005810|msi1|FALSE|unique (ssRNA)
RNA: GGGAGUUCUACAGUCCGACGAUCAGAAAAGGCAGAAGUUAGGCCCAGGGGUAAUUUGUUUGGAGAGAUGGCCCAGCUGGCAGUAGGAGGACCAGAGAAAGAUACCAUCUGUGAACUGUGUGGGGAGUCACAUCCAUACCCGGUCAACAGAGGAUUGAGCAUCA
B12: chr13:20975083:20975184:-|CDS|ENSG00000150457|msi1|total|mutant (ssRNA)
RNA: GGGAGUUCUACAGUCCGACGAUCGCCAGCCCCCUACGUUCCCACCAUCAGCCACCCCAUGGACACCUCGAAUUUCGACCCCGCCGAUGAAGAAAGCCCUUGGAACGAUGCCAGCGAAGGCCGCACCAAGGCCUGGGACACACUCAACAGAGGAUUGAGCAUCA
B13: ENSG00000107863:be:win_2601|CDS|ENSG00000107863|bound_else_gene|NA|bound_elsewhere_windowed (ssRNA)
RNA: GGGAGUUCUACAGUCCGACGAUCCCUGGAUGCUCAGCCCAACUCAAAGACAGAAAGAUCAAAAUCAUAUGAUGAGGGUCUGGAUGAUUACAGAGAAGAUGCAAAAUUGUCCUUUAAGCACGUAUCUAGUCUGAAGGGAAUCAACAACAGAGGAUUGAGCAUCA
B14: chr8:17644361:17644462:-|3pUTR|ENSG00000129422|msi1|total|mutant (ssRNA)
RNA: GGGAGUUCUACAGUCCGACGAUCCAACAUUGUGAUGUCAGUAUUUACUAAUCUACAUUCAGUGGCUGUACAAAUAACAGCUGCCGUAAGAAGAGAUUCAGGAUGCCCGAGGUGAAUAUUUGGGUCAUUUACAUGUACACUACACAACAGAGGAUUGAGCAUCA

Each binder was assayed against T1, UNK ZnF1-6 (called full-length) (human, UniProt Q9C0B0 30-357) (assay: nsRBNS (natural sequence RNA bind-n-seq); RBNS binding buffer (assumed for nsRBNS): 25 mM Tris pH 7.5, 150 mM KCl, 3 mM MgCl2, 0.01% Triton X-100, 500 ug/ml BSA, 20 U/ml SUPERase-In, 4 C; UNK is unkempt and MSI1 is Musashi-1; names of the RNAs are library labels; protein concentration not given here; high values mean tight binding).
T1 sequence: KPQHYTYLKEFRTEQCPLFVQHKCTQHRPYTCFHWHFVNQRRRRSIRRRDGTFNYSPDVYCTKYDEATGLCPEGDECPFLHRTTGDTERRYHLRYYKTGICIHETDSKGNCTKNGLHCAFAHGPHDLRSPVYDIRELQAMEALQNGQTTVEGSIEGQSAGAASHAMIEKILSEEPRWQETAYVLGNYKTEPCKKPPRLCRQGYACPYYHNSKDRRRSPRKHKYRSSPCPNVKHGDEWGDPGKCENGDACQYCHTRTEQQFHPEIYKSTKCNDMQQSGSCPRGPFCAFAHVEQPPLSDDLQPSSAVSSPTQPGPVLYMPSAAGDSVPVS

Row | Binder | binding signal
1 | B1 | 0.863 enrichment R
2 | B2 | 0.318 enrichment R
3 | B3 | 0.476 enrichment R
4 | B4 | 0.585 enrichment R
5 | B5 | 0.515 enrichment R
6 | B6 | 0.79 enrichment R
7 | B7 | 0.609 enrichment R
8 | B8 | 0.383 enrichment R
9 | B9 | 0.958 enrichment R
10 | B10 | 0.479 enrichment R
11 | B11 | 1.06 enrichment R
12 | B12 | 0.926 enrichment R
13 | B13 | 0.436 enrichment R
14 | B14 | 0.264 enrichment R
